Whole data set: some 81,000 sequences, median “one-hybrid fitness for binding parS DNA” near -0.17, cut for the highest 2% near 0.51. Some of the results follow.
B1: Caulobacter ParB omega fusion; a variant is named by its letters at X, in order, B8GW30 (parent)
chain: MESVVVGEPGMSEGRRGLGRGLSALLGEVDAAPAQAPGEQLGGSREAPIEILQRNPDQPRRTFREEDLEDLSNSIREKGVLQPILVRPSPDTAGEYQIVAGERAWRAAQRAGLKTVPIMVRELDDLAVLEIGIIENVQRADLNVLEEALSYKVLMEKFERTQENIAQTIGKSXSHVANXMRLLXLPDEVQSYLVSGELTAXHARAIAAAADPVALAKQIIEGGLSVRETEALARKAPNLSAGKSKGGRPPRVKDTDTQALESDLSSVLGLDVSIDHRGSTGTLTITYATLEQLDDLCNRLTRGI

Variants of: B1
Assay: one-hybrid fitness for binding parS DNA (scaled: cognate 1, non-cognate 0); higher = stronger binding
Settings: with parS DNA site
How it was run: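 Selection: bacterial one-hybrid in E. coli USO, HIS3 reporter with the site 19 bp from the promoter, 48 hours at 37°C on M9-minus-histidine plus 0.1 mM IPTG and 5 mM 3-AT. Libraries were Caulobacter ParB with four randomised specificity codons, sequenced on Illumina before and after selection. Fitness is the rescaled log change in variant-to-wild-type read ratio, anchored to the cognate and non-cognate sites.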

Variant | one-hybrid fitness for binding parS DNA
REYS | 0.287
QTIL | ≤ 0.2
STST | ≤ 0.2
SDDT | ≤ 0.2
CLKY | ≤ 0.2
RKEQ | ≤ 0.2
AISR | ≤ 0.2
VTPG | ≤ 0.2
RCSG | 0.997
NNKT | ≤ 0.2
MSEN | ≤ 0.2
TRNK | ≤ 0.2
AADA | ≤ 0.2
NEMS | ≤ 0.2
DSTN | ≤ 0.2
TDVG | ≤ 0.2
RKKC | 0.694
YLHK | ≤ 0.2
MFDS | ≤ 0.2
QTTP | ≤ 0.2
LLKY | ≤ 0.2
GNPN | ≤ 0.2
PCKM | ≤ 0.2
VDRM | ≤ 0.2
CPED | ≤ 0.2
DVFS | 0.259

Variant | one-hybrid fitness for binding parS DNA
HITL | ≤ 0.2
LSTQ | ≤ 0.2
IMLC | ≤ 0.2
QGPG | ≤ 0.2
RNLI | ≤ 0.2
WIYS | ≤ 0.2
QMYE | ≤ 0.2
VKVA | ≤ 0.2
NPSM | ≤ 0.2
HPAA | ≤ 0.2
GRFR | ≤ 0.2
RWVK | ≤ 0.2
VIRN | ≤ 0.2
SWVS | ≤ 0.2
YCNN | ≤ 0.2
AKER | ≤ 0.2
GWYR | ≤ 0.2
GKYI | ≤ 0.2
MLWG | ≤ 0.2
VRRS | ≤ 0.2
NFVG | ≤ 0.2
LSGM | ≤ 0.2
VYLF | ≤ 0.2
THNR | ≤ 0.2
DPIM | ≤ 0.2
LQSW | ≤ 0.2

Variant | one-hybrid fitness for binding parS DNA
YLGS | ≤ 0.2
KSKF | ≤ 0.2
PRIE | ≤ 0.2
WLMT | ≤ 0.2
RRDL | ≤ 0.2
RPGR | ≤ 0.2
PLRR | ≤ 0.2
SNTD | ≤ 0.2
PSMS | ≤ 0.2
HLVE | ≤ 0.2
RTMY | 0.452
YVYC | ≤ 0.2
RQQF | 0.28
CVPR | ≤ 0.2
FGKY | ≤ 0.2
SVCN | ≤ 0.2
PIPR | ≤ 0.2
WTKC | ≤ 0.2
VTQG | ≤ 0.2
FMST | ≤ 0.2
NRKY | ≤ 0.2
QPVQ | ≤ 0.2
RCKF | 0.541
DFER | ≤ 0.2
APNL | ≤ 0.2
QYNN | ≤ 0.2

Variant | one-hybrid fitness for binding parS DNA
PWTA | ≤ 0.2
VHGC | ≤ 0.2
RKQM | ≤ 0.2
TDAW | 0.252
TRQG | ≤ 0.2
ITRL | ≤ 0.2
MLPC | ≤ 0.2
QQYW | ≤ 0.2
RPRH | ≤ 0.2
PGKK | ≤ 0.2
GQYR | ≤ 0.2
AAMS | ≤ 0.2
VTMC | ≤ 0.2
RDPQ | ≤ 0.2
ISEV | ≤ 0.2
GIYT | ≤ 0.2
VQHW | ≤ 0.2
QNKP | ≤ 0.2
HMNC | ≤ 0.2
MPEG | ≤ 0.2
YHDY | ≤ 0.2
MDNR | ≤ 0.2
PEAC | ≤ 0.2
REIC | ≤ 0.2
PHKH | ≤ 0.2
IFSS | ≤ 0.2

Variant | one-hybrid fitness for binding parS DNA
LLAK | ≤ 0.2
ICQC | ≤ 0.2
VFPN | ≤ 0.2
TVQV | ≤ 0.2
RSKL | ≤ 0.2
TGRT | ≤ 0.2
QNHL | ≤ 0.2
LWYR | ≤ 0.2
TGEG | ≤ 0.2
NSSD | ≤ 0.2
GCVS | ≤ 0.2
GNLG | ≤ 0.2
YCTC | ≤ 0.2
FFSR | ≤ 0.2
KNLD | ≤ 0.2
AVLG | ≤ 0.2
QKRV | ≤ 0.2
SQRR | ≤ 0.2
ICSS | ≤ 0.2
TDKG | ≤ 0.2
KSPG | ≤ 0.2
LLKT | ≤ 0.2
DYTR | ≤ 0.2
REDR | ≤ 0.2
GDND | ≤ 0.2
ARGV | ≤ 0.2

Variant | one-hybrid fitness for binding parS DNA
HNHS | ≤ 0.2
KDRG | ≤ 0.2
QAIF | ≤ 0.2
HSEK | ≤ 0.2
QGSR | ≤ 0.2
IYDS | ≤ 0.2
QQKD | ≤ 0.2
DRSF | ≤ 0.2
RKGA | 0.694
KGWC | ≤ 0.2
TLWF | ≤ 0.2
RVDI | ≤ 0.2
QHWT | ≤ 0.2
VTPF | ≤ 0.2
REHI | ≤ 0.2
TTEI | ≤ 0.2
QRHL | ≤ 0.2
TYTQ | ≤ 0.2
DARM | ≤ 0.2
QQQL | ≤ 0.2
VLWA | ≤ 0.2
CGDV | ≤ 0.2
HTCS | ≤ 0.2
